The whole screen tested about 340,000 compounds, of which about 12,000 (3.5%) were called active. The shares of active, inactive and inconclusive entries below differ from those in the screen. The call rests on the fitted dose curve; in most records, active means well fitted inhibition curve with a large enough effect; inconclusive means small, poorly fitted or top-dose-only effect, or another doubt; inactive means no such curve, though single readings can be large or run the other way. Potencies of inconclusive entries are left out as doubtful fits.
Assay: qHTS Assay for Inhibitors of Hepatitis C Virus (HCV)
Conditions: Huh7.5.1 HCVcc-Cre (HCVcc is cell-culture hepatitis C virus) infection, luciferase reporter, 44 h; series mostly up to 41.8 µM
How it was run: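 Luciferase read-out (15 sec integration) after a 15 min room-temperature substrate step quantifies HCVcc-Cre infection. Cells, 1,000 per well, had compound added 4 h post-plating, then virus at ~0.5 moi, and were cultured 44 h.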
Potency means the concentration at half of the fitted maximal effect; tags describe the fitted curve by direction and shape.

| SMILES | Potency |
| --- | --- |
| N#Cc1c(SCC(=O)Nc2ccc(C(F)(F)F)cc2)sc2c(O)cc(=O)[nH]c12 | inactive |
| Cc1cccc(N2CCN(Cc3nc(-c4ccccc4Cl)oc3C)CC2)n1 | inconclusive [inhibitor, partial curve] |
| CC(C)(C)OC(=O)N1CCCC(C(=O)Nc2cccc(C(=O)NCc3ccccc3)c2)C1 (configuration not stated) | inconclusive [inhibitor, partial curve, poor fit] |
| COc1cc2c(cc1OC)C(SC)=NC(C)(C)C2 | inconclusive [inhibitor, partial curve] |
| Oc1ccc(Cl)cc1/C=C/c1ccc2cccc(O)c2n1 | inconclusive [inhibitor, single point] |
| CC(=O)c1ccc(OCCCC(=O)N2CCN(S(=O)(=O)c3cccs3)CC2)cc1 | inconclusive [inhibitor, single point] |
| COc1ccc(Cl)cc1N1C(=O)/C(=C\c2sccc2C)N=C1SCC(=O)NC1CC1 | inconclusive [inhibitor, partial curve] |
| Cc1ccc(Cl)cc1NC(=O)CC(O)(C(F)(F)F)C(F)(F)F | active: 22.4 µM |
| O=C(Nc1ccc(Cc2nc3ccccc3s2)cc1)c1ccncc1 | active: 10 µM |
| Oc1ccccc1CC=NC1CCCCC1 | inactive |
| COc1ccc(OC)c(NC(=O)CN2CCc3ccccc3C2)c1 | inconclusive [inhibitor, single point] |
| CCCCc1cc(=O)oc2c(CN3CCN(C)CC3)c(O)ccc12 | inconclusive [inhibitor, partial curve] |
| CCOc1ccccc1NC(=O)NCc1ccc2c(c1)OCO2 | inconclusive [inhibitor, partial curve] |
| O=c1[nH]c(=O)n(Cc2ccco2)c2c1C(C(F)(F)F)(C(F)(F)F)N=C(c1ccc(F)cc1)N2 | inconclusive [inhibitor, full curve] |
| COc1ccc(CCN2C(=O)C3C4C=CC(C5CC45)C3C2=O)cc1OC (configuration not stated) | inactive |
| COc1ccc(-n2ncc3c(SCC(=O)N4CCN(c5ccccc5OC)CC4)ncnc32)cc1 | active: 12.6 µM |
| CC(C)OCCCN(CC(O)c1ccccc1)CC(O)c1ccccc1 (configuration not stated) | inactive |
| O=C(NCC1CCCN1S(=O)(=O)c1ccccc1)c1cccc(Cl)c1 (configuration not stated) | inconclusive [inhibitor, single point] |
| C=CCn1c(COc2ccc(Cl)cc2)nnc1SCc1ccc(C#N)cc1 | inconclusive [inhibitor, partial curve] |
| CCS(=O)(=O)N1CCN(c2ccnc3cc(Cl)ccc23)CC1 | inactive |
| Nc1c([N+](=O)[O-])cc(-c2cnc[nH]2)cc1[N+](=O)[O-] | inactive |
| CC1CC(C)CN(S(=O)(=O)c2ccc(NC(=O)C3CC(=O)N(Cc4ccccc4)C3)cc2)C1 (configuration not stated) | inconclusive [inhibitor, single point] |
| O=[N+]([O-])c1ccc(-c2csc(N/N=C/c3cccnc3)n2)cc1 | inactive |
| O=C(CNC(=O)c1ccccc1Br)NNC(=O)c1cccs1 | inactive |

| SMILES | Potency |
| --- | --- |
| COc1ccc(OC)c(Nc2nc(NCc3ccco3)c3ccccc3n2)c1 | active: 11.2 µM |
| Cc1ccc(Cl)cc1NC(=S)N(Cc1ccccc1)Cc1cccnc1 | inconclusive [inhibitor, single point] |
| CC(=O)Nc1ccc(C(=O)OCC(=O)/C(C#N)=C(\C)N)cc1 | inactive |
| COc1cccc(-c2nc(CS(=O)(=O)CC(=O)NCC(C)c3ccccc3)c(C)o2)c1 (configuration not stated) | inconclusive [inhibitor, partial curve] |
| CSc1ccc(CCNC(=O)CN2C(=O)c3cccnc3Oc3ccc(C)cc32)cc1 | inconclusive [inhibitor, partial curve] |
| CCOC(=O)CCNC(=O)N1CCCC(C(=O)c2cccc(OC(C)C)c2)C1 (configuration not stated) | inactive |
| O=C(Nc1cccc(S(=O)(=O)N2CCOCC2)c1)c1ccc(Cl)c([N+](=O)[O-])c1 | inconclusive [inhibitor, single point] |
| COc1ccc2c(c1OC)C(=O)N(c1cccc(C(F)(F)F)c1)C2 | inconclusive [inhibitor, single point] |
| O=C(O)c1cc(N/N=C/C=C/c2ccccc2[N+](=O)[O-])ccc1Cl | inactive |
| CCCN(CCC)CCCNC(=O)c1cc2cc3ccc(Cl)cc3nc2o1 | inconclusive [inhibitor, full curve] |
| COc1ccc(N=C2NN=C(c3c(C)[nH]c4ccccc34)CS2)cc1 | inconclusive [inhibitor, single point] |
| CCOC(=O)c1c(N)sc(C(C)=O)c1C | inconclusive [inhibitor, single point] |
| S=C(Nc1ccc(Cl)cc1)c1sc(N2CCCCC2)nc1N1CCOCC1 | inconclusive [inhibitor, partial curve] |
| COc1ccc(C(=O)C23CN4CN(CN(C4)C2)C3)cc1 | inconclusive [inhibitor, single point] |
| CCN(CCNC(=O)Nc1ccc(Cl)cc1)c1ccccc1 | active: 14.1 µM |
| COC(=O)C1=C(c2cc3ccccc3o2)C[C@@H]2CC[C@H]1N2C(=O)NCc1ccc(C(F)(F)F)cc1 | inconclusive [inhibitor, partial curve] |
| CCOC(=O)c1nn(-c2sc(C(=O)OC)c(C)c2C(=O)OC)cc1O | inconclusive [inhibitor, full curve, poor fit] |
| O=C(O)CC[N+](=O)[O-] | inactive |
| COc1ccc(-c2nn(CCC#N)cc2C(=O)NCc2ccccc2)cc1OC | inactive |
| Cc1cccc(NC(=O)c2sc3nc(-c4ccccc4)cn3c2C)n1 | active: 12.6 µM |
| Cc1nn(Cc2ccccc2Cl)c2sc(C(=O)Nc3ccccc3N3CCOCC3)cc12 | active: 12.6 µM |
| Nn1cnc2c(c1=O)C1(CCCCC1)Cc1ccccc1-2 | inconclusive [inhibitor, single point] |
| Cc1cccc(S(=O)(=O)c2c(N)n(/N=C/c3ccccc3)c3nc4ccccc4nc23)c1 | inactive |
